# According to paper PMC4336329 (PLoS ONE, 2015):
# About 2,200 (0.71%) of roughly 310,000 compounds showed an effect of 50% or more. The effect is printed as a negative number. The list shows a part of the results.
# Target: human ether-à-go-go-related gene (hERG) potassium channel (human, UniProt Q12809)
# Experiment: primary screen, population patch clamp on CHO cells stably expressing hERG
# human ether-à-go-go-related gene (hERG) potassium channel, sequence (Q12809 whole entry, looked up): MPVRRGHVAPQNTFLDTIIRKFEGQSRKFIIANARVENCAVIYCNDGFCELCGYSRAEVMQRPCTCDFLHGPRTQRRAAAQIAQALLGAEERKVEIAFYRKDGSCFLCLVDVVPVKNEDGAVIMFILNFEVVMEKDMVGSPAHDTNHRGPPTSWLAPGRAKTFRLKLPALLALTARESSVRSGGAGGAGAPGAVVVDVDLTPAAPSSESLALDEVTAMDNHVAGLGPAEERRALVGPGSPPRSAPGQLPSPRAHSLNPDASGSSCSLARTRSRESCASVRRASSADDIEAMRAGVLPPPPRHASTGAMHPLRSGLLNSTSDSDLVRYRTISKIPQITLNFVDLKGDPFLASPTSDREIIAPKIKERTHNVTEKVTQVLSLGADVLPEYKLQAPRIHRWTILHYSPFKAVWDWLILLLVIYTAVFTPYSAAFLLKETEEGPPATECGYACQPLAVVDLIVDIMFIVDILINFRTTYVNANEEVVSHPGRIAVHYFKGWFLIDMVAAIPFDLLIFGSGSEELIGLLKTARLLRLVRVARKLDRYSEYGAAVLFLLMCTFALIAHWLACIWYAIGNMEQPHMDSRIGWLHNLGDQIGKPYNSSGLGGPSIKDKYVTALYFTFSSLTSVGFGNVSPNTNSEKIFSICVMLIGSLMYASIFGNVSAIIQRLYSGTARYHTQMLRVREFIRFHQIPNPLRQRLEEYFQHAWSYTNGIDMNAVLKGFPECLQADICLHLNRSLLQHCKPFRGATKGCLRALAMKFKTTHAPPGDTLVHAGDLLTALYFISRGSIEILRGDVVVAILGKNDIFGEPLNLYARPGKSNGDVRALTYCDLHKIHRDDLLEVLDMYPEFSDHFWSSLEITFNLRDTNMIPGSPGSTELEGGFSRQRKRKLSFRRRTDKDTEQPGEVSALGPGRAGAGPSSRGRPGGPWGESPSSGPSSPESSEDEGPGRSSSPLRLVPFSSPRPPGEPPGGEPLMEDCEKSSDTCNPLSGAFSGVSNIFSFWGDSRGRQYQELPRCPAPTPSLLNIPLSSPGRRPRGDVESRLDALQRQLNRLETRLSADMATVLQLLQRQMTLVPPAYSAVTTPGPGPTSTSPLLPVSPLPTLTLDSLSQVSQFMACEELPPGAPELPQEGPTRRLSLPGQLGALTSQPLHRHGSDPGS
row,Structure (SMILES),"hERG current change (%, negative = inhibition) at 1uM [%]"
1,Cc1ccc(NC(=O)CN2C(=O)C3C4C=CC(C4)C3C2=O)cc1S(=O)(=O)N(C)C (stereo not drawn),10.6
2,CSCCCNC(=O)c1ccc(OC2CCN(C(=O)c3cccnc3)CC2)cc1,3.06
3,Cc1cccc(OCCC(=O)NCC(c2ccco2)N2CCCCC2)c1 (stereo not drawn),7.87
4,Cn1ncc(Br)c1C(=O)N1CCCC1,14.4
5,CC(=C/c1ccc(C(C)C)cc1)/C=N/NC(=O)Cn1nnnc1N,15.6
6,O=C(Nc1nnc(S(=O)(=O)Nc2ccccc2)s1)c1ccccc1Cl,14.4
7,CCN(CC)c1cc(CS(=O)c2ccccc2)nc(-c2ccccc2)n1 (stereo not drawn),14.5
8,CC(/C=C1\SC(=Nc2cccnc2)NC1=O)=C\c1ccccc1,13.9
9,C=CCOc1ccc(CNc2ccc3[nH]c(=O)[nH]c3c2)cc1,1.41
10,CC1CCc2nc3sc4c(c3c(N)c2C1)CCCC4 (stereo not drawn),-1.17
11,CN1CCN(NC(=O)c2ccc(COc3ccccc3Br)o2)CC1,6.02
12,O=C(CN1CCN(C(=O)c2ccco2)CC1)Nc1ccccc1,6.56
13,O=C(Cn1[nH]c(=O)c2ccccc2c1=O)OCC(=O)c1ccc(Br)cc1,16.6
14,Cc1cc(C(=O)COC(=O)CNC(=O)c2ccc(F)cc2)c(C)n1Cc1ccco1,7.35
15,O=C(Cc1c[nH]c2ccccc12)NCc1ccncc1,6.5
16,CNCc1ccccc1OCC(=O)Nc1ccccc1OC,3.07
17,Cc1ccc(NC(=O)c2c(Cl)n(C)c3ccccc23)cc1,-8.64
18,CCc1ccccc1N1CCN(S(=O)(=O)c2cc(OC)ccc2OC)CC1,4.41
19,O=C(Nc1cccc(Br)c1)c1c(O)c2c(n(Cc3ccccc3)c1=O)CCCC2,7.82
20,OCC(O)C(O)C(O)C(O)c1nc2ccccc2[nH]1 (stereo not drawn),-6.45
21,CCCCN1C(=O)C(O)(c2ccccc2)c2cc(Br)ccc21 (stereo not drawn),7.66
22,O=C(Nc1cccc2ccccc12)c1cccc(F)c1,16
23,Clc1ncnc2c1oc1ccccc12,9.26

row,Structure (SMILES),"hERG current change (%, negative = inhibition) at 1uM [%]"
1,CCN(CC)CCN(C(=O)c1ccc(C(=O)c2ccccc2)cc1)c1nc2cc3c(cc2s1)OCO3.Cl,6.65
2,CNS(=O)(=O)c1ccc(N=Cc2c(C)[nH]n(-c3ccc(C)cc3C)c2=O)cc1,19.5
3,COc1ccc(-c2csc3ncnc(N4CCN(S(=O)(=O)c5cccc(C(F)(F)F)c5)CC4)c23)cc1,10.7
4,CCN(CC(=O)N1CCOCC1)S(=O)(=O)c1cc(Cl)ccc1Cl,-3.77
5,CCO[C@@H]1OC(C(=O)N2CCN(Cc3ccccc3)CC2)=C[C@H](c2coc3ccccc3c2=O)[C@H]1CCCO,10.4
6,C=CCNC(=O)CN1CCN(Cc2ccc3c(c2)OCO3)CC1.Cl,8.67
7,CCNC(=O)CC1C(=O)N(c2ccc(F)cc2)C(=O)N1CCc1sccc1C (stereo not drawn),0.0627
8,COc1cccc(C(=O)COc2ccc3c(C)c(Cc4ccccc4)c(=O)oc3c2)c1,14.1
9,Cc1cc(C)c2c(N)c(C(=O)c3ccc(Cl)cc3Cl)sc2n1,6.94
10,CC(=O)C1=C(O)C(=O)N(CCNCCO)C1c1ccccc1 (stereo not drawn),1.25
11,CCOc1ccc(C(=O)NC(=S)Nc2ccccc2N2CCOCC2)cc1Br,6.45
12,CCN(CC)C(=O)CCNS(=O)(=O)c1ccc(C)cc1,14
13,COc1ccc2c(c1)CC/C2=N\NC(=O)c1ccccc1,5.32
14,CCN1c2ccccc2NC2N=C(OC)C(c3ccccc3)C21 (stereo not drawn),5.05
15,CCOCCCNC(=O)CN1C(=O)COc2ccc(S(=O)(=O)N3CCCC3)cc21,16
16,O=C1c2oc3ccc(Cl)cc3c(=O)c2C(c2ccccn2)N1CCCN1CCOCC1 (stereo not drawn),8.95
17,O=C(Nc1ccccc1)c1ncoc1-c1ccc(Cl)cc1,13.7
18,CCOC(=O)c1sc(NC(=O)CSc2n[nH]c(CC(C)C)n2)nc1C,-4.44
19,Cc1cccc(CCNS(=O)(=O)c2ccc3c(c2)NC(=O)CO3)c1,10.7
20,COc1ccccc1CNC(=O)CCS(=O)(=O)c1cccs1,21.2
21,CC(C)OC(=O)CSc1nnc(-c2ccc(C(C)(C)C)cc2)n1N,-1.9
22,Cc1ccc(NC(=O)Nc2cnccn2)c(C)c1,9.35
23,COc1cc(OC)c2c(c1)S(=O)(=O)C(c1ccccc1)=C2N,16.5

row,Structure (SMILES),"hERG current change (%, negative = inhibition) at 1uM [%]"
1,O=C(NC(=S)Nc1cc([N+](=O)[O-])ccc1O)c1cccnc1,13
2,Cc1ccc(C)c(N(CC(=O)N2CCCC2)S(C)(=O)=O)c1,17.3
3,Cc1nc(-c2nc(C(=O)NNS(C)(=O)=O)cs2)cs1,7.5
4,Cn1nc(C(=O)N2CCc3ccccc32)c2ccccc2c1=O,18.3
5,CC(=O)NCC(=O)N(c1ccccc1)C1(C(=O)NC2CCCCC2)CCCCC1,7.2
6,CCc1cccc2sc(NC(=O)c3ccc(N4C(=O)CCC4=O)cc3)nc12,20.5
7,CCOC(=O)[C@@H]1[C@H]2COc3cc(OC)ccc3[C@@H]2N2C(=O)N(c3ccc(Br)cc3)C(=O)[C@@]12C,5.83
8,Cc1cc(NC(=O)c2ccccc2C)no1,7.51
9,c1ccc2oc(Cc3ccc(Cc4nc5ccccc5o4)cc3)nc2c1,8.95
10,O=C(COCc1cc(-c2ccc3c(c2)OCO3)on1)Nc1cccnc1,12.1
11,C=CCNC(=S)N1CCN(c2cc3c(cc2F)c(=O)c(C(=O)O)cn3CC)CC1,9.41
12,O=C(O)/C=C/c1cccc(NC(=O)c2ccc(Cl)cc2)c1,17.1
13,COc1cc(CNC(=O)c2ccc3oc(C(C)C)nc3c2)cc(OC)c1,-1.26
14,COc1ccc2nc(N(CCN(C)C)C(=O)c3ccc4c(c3)OCCO4)sc2c1.Cl,0.359
15,Cc1ccc(NC(=O)CCc2nnc3ccc(N4CCC(C)CC4)nn23)nc1,5.56
16,COC(=O)C1=C(C)N(c2cccc(C)c2)C(=O)/C1=C\c1cccs1,12.2
17,Cc1c2cnn(CC(=O)NCc3ccccn3)c(=O)c2c(C)n1Cc1ccc(Cl)cc1,12
18,COc1cccc(N2CC(C)Cn3c2nc2c3c(=O)n(CCN3CCOCC3)c(=O)n2C)c1 (stereo not drawn),16.7
19,Cc1ccccc1NC(=O)CN(C)S(=O)(=O)c1ccc2c(c1)n(C)c(=O)c(=O)n2C,12.4
20,O=C(COc1ccccc1Cl)NCCNC(=O)c1ccncc1,22.8
21,CN(C)CCCCOc1cccc(Br)c1.O=C(O)C(=O)O,6.64
22,CN1CC(C(=O)c2ccc(Cl)cc2)C(c2ccc(Cl)cc2Cl)C1 (stereo not drawn),7.54
23,O=C(NC(=S)NCC1CCCO1)c1ccc(Cl)cc1Cl (stereo not drawn),1.34

row,Structure (SMILES),"hERG current change (%, negative = inhibition) at 1uM [%]"
1,Fc1ccc(N2CCN(Cc3cn[nH]c3-c3ccccc3)CC2)cc1,-27
2,O=C1NC(=O)C2(CCCCCCCCCCC2)N1,9.52
3,Nc1cc([N+](=O)[O-])cc2oc(-c3ccccc3)cc12,13
4,Fc1cccc(Nc2cc(-n3cccn3)ncn2)c1,7.87
5,CC(C)(C)NC(=O)NC(=O)CSc1nnc(COc2ccccc2Cl)o1,7.67
6,O=C(Cc1ccccc1[N+](=O)[O-])NCCCN1CCOCC1,4.71
7,Cc1ccc(S(=O)(=O)NC(=O)Nc2nccs2)cc1,5.12
8,CCOC(=O)c1[nH]ncc1CN1CCCC(C(=O)c2cc(Cl)ccc2OC)C1 (stereo not drawn),-29.9
9,COc1cccc(-c2nnn(CCC(=O)O)n2)c1,5.64
10,CCOC(=O)C1(CCCc2ccccc2)CCN(C(=O)CCc2cnn(C)c2)CC1,-13.2
11,O=C(NCC(c1ccco1)N1CCN(c2ccccc2)CC1)OCc1ccccc1 (stereo not drawn),4.56
12,COC(=O)Cc1ccc(NC(=S)NCCO)cc1,7.83
13,CN(Cc1nc(CC2CC2)no1)CC12CC3CC(CC(C3)C1)C2,10.4
14,COC(=O)c1ccccc1OCCN1CCCCCC1.O=C(O)C(=O)O,-4.59
15,O=C(Nc1ccccc1Br)c1cc(=O)c2ccccc2o1,11.5
16,NC(=O)COc1cccc(/C=N/NC(=O)c2ccc(-n3cccc3)cc2)c1,11.2
17,CCOc1ccc(NC(=O)C2CCCN2C(=O)Oc2ccccc2)cc1 (stereo not drawn),8.86
18,CCc1c(C(=O)OCc2ccccc2)[nH]c(C)c1C,5.66
19,Cc1nnc(SCC(=O)c2ccc(S(=O)(=O)N3CCOCC3)cc2)n1-c1ccccc1,-4.32
20,O=c1cc(-c2ccco2)nc(-c2cccs2)o1,15.8
21,CCN(CC)CC#CCOC(c1ccccc1)c1ccccc1.Cl,9.79
